In patent US11427615B2, “Peptide compound and application thereof, and composition containing peptide compound” (XDCEXPLORER (SHANGHAI) CO., LTD., priority 2017, dated 2022):
Where two headings read alike, the source gives them in different places. Not every detail of the peptide structures is certain; ends, links or a residue may be inferred. For at least one compound, name, drawing or mass did not settle the structure. Starred links: 1 amine or outer side, 2 acyl side, 3 side chain; linkers in the order of their positions; H or OH if unused. Non-standard residues stand in square brackets, D forms with d. Residues, ends and D or L forms follow the SMILES beside them. *: point of attachment. Pro(5R-Ph) = O=C(O)[C@@H]1CC[C@H](c2ccccc2)N1; dPhe(2,4-Cl2) = N[C@H](Cc1ccc(Cl)cc1Cl)C(=O)O; Oic = O=C(O)[C@@H]1C[C@@H]2CCCC[C@@H]2N1; Phe(3-Cl) = N[C@@H](Cc1cccc(Cl)c1)C(=O)O; Pro(4,4-F2) = O=C(O)[C@@H]1CC(F)(F)CN1; dAla(2-furyl) = N[C@H](Cc1ccco1)C(=O)O; Arg(Me) = CNC(=N)NCCC[C@H](N)C(=O)O; Hyp = O=C(O)[C@@H]1C[C@@H](O)CN1; Tic = O=C(O)[C@@H]1Cc2ccccc2CN1; azaPro = O=C(N1CCCN1[*:1])[*:2]; dTic = O=C(O)[C@H]1Cc2ccccc2CN1; 2Thi = N[C@@H](Cc1cccs1)C(=O)O; Pip = O=C(O)[C@@H]1CCCCN1; Ac6c = NC1(C(=O)O)CCCCC1; Thz = O=C(O)[C@@H]1CSCN1; Aze = O=C(O)[C@@H]1CCN1; NHtBu = CC(C)(C)N*; azaGly = NNC(=O)O

Target: T1, human kiss1 receptor (GPR54) (Homo sapiens, UniProt Q969F8)
T1 construct: host or cells: NFAT-bla CHO-K1 cells (Chinese hamster ovary), purchased recombinant cell line
T1 sequence (Q969F8 whole entry): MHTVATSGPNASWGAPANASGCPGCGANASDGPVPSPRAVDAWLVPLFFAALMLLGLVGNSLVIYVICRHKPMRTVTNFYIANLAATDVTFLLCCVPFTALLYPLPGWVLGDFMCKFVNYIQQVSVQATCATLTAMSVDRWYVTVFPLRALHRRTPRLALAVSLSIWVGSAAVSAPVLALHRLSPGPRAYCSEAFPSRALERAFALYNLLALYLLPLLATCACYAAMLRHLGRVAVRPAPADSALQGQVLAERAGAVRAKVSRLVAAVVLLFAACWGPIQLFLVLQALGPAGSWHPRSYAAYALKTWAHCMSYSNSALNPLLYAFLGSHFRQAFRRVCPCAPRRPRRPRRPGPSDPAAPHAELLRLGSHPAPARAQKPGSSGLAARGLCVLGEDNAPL
Test: Kiss1 receptor (GPR54) binding activity of agonists, FRET detection in NFAT-bla CHO-K1 cells
Assay type: cell-based

[1] = GPR54, measured according to the method of effect Embodiment 1, preliminary data, read-out: Preliminary measurement data (GPR54) EC50
[2] = NFAT-bla CHO-K1 cells that express human kiss1 receptor (GPR54), FRET, cells cultured with compound for 4 hours, read-out: GPR54 EC50/nM

Row | SMILES | EC50 [1] [nM] | EC50 [2] [nM]
1 | CNC(=N)NCCC[C@H](NC(=O)[C@H](CC(C)C)NC(=O)NNC(=O)[C@H](Cc1ccccc1)NC(=O)[C@@H](NC(=O)[C@H](CC(N)=O)NC(=O)[C@@H]1C[C@@H](O)CN1C(=O)[C@@H]1CC[C@H](c2ccccc2)N1C(C)=O)[C@@H](C)O)C(=O)N[C@@H](Cc1c[nH]c2ccccc12)C(N)=O [YA-44, Ac-Pro(5Ph)-Hyp-Asn-Thr-Phe-azaGly-Leu-Arg(Me)-Trp-NH2] (Ac-[Pro(5R-Ph)][Hyp]NTF[azaGly]L[Arg(Me)]W-NH2) | 0.015 | 0.015
2 | CNC(=N)NCCC[C@H](NC(=O)[C@H](CC(C)C)NC(=O)NNC(=O)[C@H](Cc1ccccc1)NC(=O)[C@@H](NC(=O)[C@H](CC(N)=O)NC(=O)[C@@H]1CSCN1C(=O)[C@@H](Cc1ccc(O)cc1)NC(C)=O)[C@@H](C)O)C(=O)N[C@@H](Cc1c[nH]c2ccccc12)C(N)=O [YA-45, Ac-D-Tyr-Thz-Asn-Thr-Phe-azaGly-Leu-Arg(Me)-Trp-NH2] (Ac-[dY][Thz]NTF[azaGly]L[Arg(Me)]W-NH2) | 0.095 | 0.095
3 | CNC(=N)NCCC[C@H](NC(=O)[C@H](CC(C)C)NC(=O)NNC(=O)[C@H](Cc1ccccc1)NC(=O)[C@@H](NC(=O)[C@H](CC(N)=O)NC(=O)[C@@H]1C[C@@H](O)CN1C(=O)[C@H](Cc1cccc(Cl)c1)NC(C)=O)[C@@H](C)O)C(=O)N[C@@H](Cc1c[nH]c2ccccc12)C(N)=O [YA-70, Ac-Phe(3-Cl)-Hyp-Asn-Thr-Phe-azaGly-Leu-Arg(Me)-Trp-NH2] (Ac-[Phe(3-Cl)][Hyp]NTF[azaGly]L[Arg(Me)]W-NH2) | 0.245 | 0.245
4 | CNC(=N)NCCC[C@H](NC(=O)[C@H](CC(C)C)NC(=O)NNC(=O)[C@H](Cc1ccccc1)NC(=O)[C@@H](NC(=O)[C@H](CC(N)=O)NC(=O)[C@H](Cc1cccs1)NC(=O)[C@@H](Cc1ccc(O)cc1)NC(C)=O)[C@@H](C)O)C(=O)N[C@@H](Cc1c[nH]c2ccccc12)C(N)=O [YA-84, Ac-D-Tyr-Thi-Asn-Thr-Phe-azaGly-Leu-Arg(Me)-Trp-NH2] (Ac-[dY][2Thi]NTF[azaGly]L[Arg(Me)]W-NH2) | 0.007 | 0.007
5 | CNC(=N)NCCC[C@H](NC(=O)[C@H](CC(C)C)NC(=O)NNC(=O)[C@@H](Cc1ccco1)NC(=O)[C@@H](NC(=O)[C@H](CC(N)=O)NC(=O)[C@@H]1C[C@@H](O)CN1C(=O)[C@@H](Cc1ccc(O)cc1)NC(C)=O)[C@@H](C)O)C(=O)N[C@@H](Cc1c[nH]c2ccccc12)C(N)=O [YA-167, Ac-(D-Tyr)-Hyp-Asn-Thr-(D-2Fua)-azaGly-Leu-Arg(Me)-Trp-NH2] (Ac-[dY][Hyp]NT[dAla(2-furyl)][azaGly]L[Arg(Me)]W-NH2) | 0.33 | 0.33
6 | CNC(=N)NCCC[C@H](NC(=O)[C@H](CC(C)C)NC(=O)NNC(=O)[C@H](Cc1ccccc1)NC(=O)[C@@H](NC(=O)[C@H](CC(N)=O)NC(=O)C1(NC(=O)[C@@H](Cc2ccc(O)cc2)NC(C)=O)CCCCC1)[C@@H](C)O)C(=O)N[C@@H](Cc1c[nH]c2ccccc12)C(N)=O [YA-172, Ac-D-Tyr-A6c-Asn-Thr-Phe-azaGly-Leu-Arg(Me)-Trp-NH2] (Ac-[dY][Ac6c]NTF[azaGly]L[Arg(Me)]W-NH2) | 0.012 | 0.012
7 | CNC(=N)NCCC[C@H](NC(=O)[C@H](CC(C)C)NC(=O)NNC(=O)[C@H](Cc1ccccc1)NC(=O)[C@@H](NC(=O)[C@H](CC(N)=O)NC(=O)[C@@H]1CC(F)(F)CN1C(=O)[C@@H](Cc1ccc(Cl)cc1Cl)NC(C)=O)[C@@H](C)O)C(=O)N[C@@H](Cc1c[nH]c2ccccc12)C(N)=O [YA-180, Ac-[D-Phe(2,4-DiCl)]-Pro(diF)-Asn-Thr-Phe-azaGly-Leu-Arg(Me)-Trp-NH2] (Ac-[dPhe(2,4-Cl2)][Pro(4,4-F2)]NTF[azaGly]L[Arg(Me)]W-NH2) | 0.015 | 0.015
8 | CNC(=N)NCCC[C@H](NC(=O)[C@H](CC(C)C)NC(=O)NNC(=O)[C@H](Cc1ccccc1)NC(=O)[C@@H](NC(=O)[C@H](CC(N)=O)NC(=O)[C@@H]1CCCCN1C(=O)[C@@H](Cc1ccco1)NC(C)=O)[C@@H](C)O)C(=O)N[C@@H](Cc1c[nH]c2ccccc12)C(N)=O [YA-181, Ac-(D-2Fua)-(S-Pip)-Asn-Thr-Phe-azaGly-Leu-Arg(Me)-Trp-NH2] (Ac-[dAla(2-furyl)][Pip]NTF[azaGly]L[Arg(Me)]W-NH2) | 0.043 | 0.043
9 | CNC(=N)NCCC[C@H](NC(=O)[C@H](CC(C)C)NC(=O)NNC(=O)[C@H](Cc1ccccc1)NC(=O)[C@@H](NC(=O)[C@H](CC(N)=O)NC(=O)[C@@H]1CC(F)(F)CN1C(=O)[C@@H](Cc1ccco1)NC(C)=O)[C@@H](C)O)C(=O)N[C@@H](Cc1c[nH]c2ccccc12)C(N)=O [YA-183, Ac-(D-2Fua)-Pro(diF)-Asn-Thr-Phe-azaGly-Leu-Arg(Me)-Trp-NH2] (Ac-[dAla(2-furyl)][Pro(4,4-F2)]NTF[azaGly]L[Arg(Me)]W-NH2) | 0.029 | 0.029
10 | CNC(=N)NCCC[C@H](NC(=O)[C@H](CC(C)C)NC(=O)[C@@H]1CCN1C(=O)[C@H](Cc1ccccc1)NC(=O)[C@@H](NC(=O)[C@H](CC(N)=O)NC(=O)N1CCCN1C(=O)[C@@H](Cc1ccc(O)cc1)NC(C)=O)[C@@H](C)O)C(=O)N[C@@H](Cc1c[nH]c2ccccc12)C(N)=O [YA-192, Ac-(D-Tyr)-azaPro-Asn-Thr-Phe-Aze-Leu-Arg(Me)-Trp-NH2] (Ac-[dY][azaPro]NTF[Aze]L[Arg(Me)]W-NH2; C-terminus assumed) | 5.04 | 2.17
11 | CNC(=N)NCCC[C@H](NC(=O)[C@H](CC(C)C)NC(=O)NNC(=O)[C@@H]1Cc2ccccc2CN1C(=O)[C@@H](NC(=O)[C@H](CC(N)=O)NC(=O)[C@@H]1C[C@@H](O)CN1C(=O)[C@@H](Cc1ccc(O)cc1)NC(C)=O)[C@@H](C)O)C(=O)N[C@@H](Cc1c[nH]c2ccccc12)C(N)=O [YA-216, Ac-(D-Tyr)-Hyp-Asn-Thr-Tic-azaGly-Leu-Arg(Me)-Trp-NH2] (Ac-[dY][Hyp]NT[Tic][azaGly]L[Arg(Me)]W-NH2) | 0.44 | 0.44
12 | CNC(=N)NCCC[C@H](NC(=O)[C@H](CC(C)C)NC(=O)[C@@H]1C[C@@H]2CCCC[C@@H]2N1C(=O)[C@H](Cc1ccccc1)NC(=O)[C@@H](NC(=O)[C@H](CC(N)=O)NC(=O)[C@@H]1C[C@@H](O)CN1C(=O)[C@@H](Cc1ccc(O)cc1)NC(C)=O)[C@@H](C)O)C(=O)N[C@@H](Cc1c[nH]c2ccccc12)C(N)=O [YA-234, Ac-(D-Tyr)-Hyp-Asn-Thr-Phe-Oic-Leu-Arg(Me)-Trp-NH2] (Ac-[dY][Hyp]NTF[Oic]L[Arg(Me)]W-NH2) | 202 | 202
13 | CNC(=N)NCCC[C@H](NC(=O)[C@H](CC(C)C)NC(=O)NNC(=O)[C@H](Cc1ccccc1)NC(=O)[C@@H](NC(=O)[C@H](CC(N)=O)NC(=O)[C@@H]1C[C@@H](O)CN1C(=O)[C@H]1Cc2ccccc2CN1C(C)=O)[C@@H](C)O)C(=O)N[C@@H](Cc1c[nH]c2ccccc12)C(N)=O [YA-236, Ac-D-Tic-Hyp-Asn-Thr-Phe-azaGly-Leu-Arg(Me)-Trp-NH2] (Ac-[dTic][Hyp]NTF[azaGly]L[Arg(Me)]W-NH2) | 0.058 | 0.058
14 | CNC(=N)NCCC[C@H](NC(=O)[C@H](CC(C)C)NC(=O)NNC(=O)[C@H](Cc1ccccc1)NC(=O)[C@@H](NC(=O)[C@H](CC(N)=O)NC(=O)[C@@H]1CCCCN1C(=O)[C@@H](Cc1ccc(Cl)cc1Cl)NC(C)=O)[C@@H](C)O)C(=O)N[C@@H](Cc1c[nH]c2ccccc12)C(=O)NC(C)(C)C [YA-240, Ac-[D-Phe(2,4-DiCl)]-(s-Pip)-Asn-Thr-Phe-azaGly-Leu-Arg(Me)-Trp-NHtBu] (Ac-[dPhe(2,4-Cl2)][Pip]NTF[azaGly]L[Arg(Me)]W-NHtBu) | 173 | 173
